# “And” between values parts separate entries of the source, which are not always exact repeats. Equal values may be shown once. Inconclusive results, whose numbers are uncertain, are shown with a selection of clear calls. For some of these results: Potencies of inconclusive entries are doubtful fits and often do not repeat. For some of these results: “Side channel” marks fits to a control or component signal instead of the main read-out. The source made the active and inactive calls. Unless noted, calls follow the shape of the dose curve; as a rule, active = well fitted curve in the direction sought with a large enough effect; inconclusive = small, poorly fitted or top-dose-only effect, or another doubt; inactive = no such curve, though single readings can be large; an effect the other way counts as inactive or inconclusive.
# Experiments:
# [1] = qHTS Assay for Identifying Gametocytocidal Compounds (AID 743244); also: potency is read from the fitted curve at half-maximal effect;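 as to max response: % is scaled to controls: 0 for no effect and ±100 for the full control effect; actives lower the fluorescent signal which means gametocytes are killed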; settings: P. falciparum 3D7 stage III-V gametocytes, alamarBlue, 72 h; max response: stronger effect = lower value
# Summary of the method: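 Stage III–V gametocytes of P. falciparum 3D7 were seeded at 20,000 cells/well onto pre-dispensed compounds. After 72 h, 37 °C, 5% CO2, alamarBlue was added for another 24 h.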
# [2] = qHTS assay for cell viability of HEK293 cells (AID 743288); settings: ATP luminescence (CellTiter-Glo), 18 h; also: potency is read from the fitted curve at half-maximal effect; nearly all actives have a fitted effect of over 50% in size
# Summary of the method: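 Readout is luciferase-coupled ATP content (CellTiter-Glo luminescence, 30 min room temperature) as a measure of metabolically competent cells. Parental HEK293 cells were plated 5 h or more before compound addition, then treated 18 h at 37 C.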
# [3] = qHTS assay for cell viability of the p53RE-bla HCT-116 cell line (AID 743292); settings: p53RE-bla HCT-116 viability, ATP luminescence, 16 h; series mostly up to 95 µM; also: potency is read from the fitted curve at half-maximal effect; nearly all actives have a fitted effect of over 55% in size
# Summary of the method: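 Compound-exposed HCT-116 (p53RE-bla) cells, 4,000 per well, were kept 16 h at 37 C following a 5 h preincubation. Cell number was estimated from total ATP by CellTiter-Glo luminescence read after 30 min at room temperature.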
# [4] = P-glycoprotein substrates identified in KB-8-5-11 adenocarcinoma cell line, qHTS therapeutic library screen (AID 1346987); settings: KB-8-5-11 (P-gp overexpressing) viability, CellTiter-Glo, 72 h; series mostly up to 44.5 µM; also: nearly all actives have a fitted effect of over 65% in size; also: potency is read from the fitted curve at half-maximal effect
# Summary of the method: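 Compounds are pinned in dose-response onto KB-8-5-11 cells (500 cells/well, colchicine-free medium) and left 72 h at 37 degree C. CellTiter-Glo luminescence then yields AC50 values.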
# [5] = target: T1, Tyrosine-protein phosphatase non-receptor type substrate 1 (Homo sapiens) + Leukocyte surface antigen CD47 (Homo sapiens) (UniProt P78324+Q08722); test: CD47-SIRPalpha protein protein interaction - HTRF assay qHTS validation (AID 1347058; active = well fitted curve in the direction sought with a large enough effect in the signal ratio, not every such curve was filed as active; inconclusive = small, poorly fitted or top-dose-only effect, or effect the other way, or a change in a side signal; inactive = no such curve, though single readings can be large or run the other way; the % refers to the signal ratio; also: potency is read from the fitted curve at half-maximal effect); settings: TR-FRET HTRF CD47-His / biotin-SIRPalpha binding, ratio 665/615; series mostly up to 38.3 µM
# T1 sequence (P78324 whole entry, looked up, the tested form may be a part): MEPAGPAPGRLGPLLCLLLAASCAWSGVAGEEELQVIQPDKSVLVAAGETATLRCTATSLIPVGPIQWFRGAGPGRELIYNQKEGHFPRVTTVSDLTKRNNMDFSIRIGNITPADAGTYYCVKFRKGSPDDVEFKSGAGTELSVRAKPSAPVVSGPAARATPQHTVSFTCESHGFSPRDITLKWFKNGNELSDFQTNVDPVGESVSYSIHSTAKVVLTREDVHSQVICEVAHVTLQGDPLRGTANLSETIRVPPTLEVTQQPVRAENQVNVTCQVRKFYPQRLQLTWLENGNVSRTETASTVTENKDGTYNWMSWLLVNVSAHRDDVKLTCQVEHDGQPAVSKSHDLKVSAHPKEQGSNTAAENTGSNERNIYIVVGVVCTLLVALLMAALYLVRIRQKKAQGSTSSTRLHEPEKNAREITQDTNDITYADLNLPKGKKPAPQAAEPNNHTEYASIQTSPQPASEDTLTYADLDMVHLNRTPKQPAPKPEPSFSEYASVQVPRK
# T1 sequence (Q08722 whole entry, looked up, the tested form may be a part): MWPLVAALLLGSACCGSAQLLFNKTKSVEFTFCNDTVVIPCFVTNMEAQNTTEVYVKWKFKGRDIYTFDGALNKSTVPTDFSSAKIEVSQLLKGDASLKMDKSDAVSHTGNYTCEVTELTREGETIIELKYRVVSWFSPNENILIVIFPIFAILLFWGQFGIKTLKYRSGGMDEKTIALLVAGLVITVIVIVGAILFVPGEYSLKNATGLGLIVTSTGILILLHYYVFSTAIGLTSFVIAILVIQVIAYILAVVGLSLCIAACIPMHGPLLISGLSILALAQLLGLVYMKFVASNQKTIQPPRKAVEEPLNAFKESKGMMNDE
# Summary of the method: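 Soluble extracellular domains (6His-CD47, Avi-tag-biotinylated SIRPalpha) in PBS pH 7.4 with 0.05% IGEPAL CA-630. Compounds were preincubated 30 min at RT with CD47 and anti-His-Eu, then SIRPalpha and SAV-XL665 were added. TR-FRET 665/615 ratio.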
# [6] = target: Atrial natriuretic peptide receptor 2 (Homo sapiens) (UniProt P20594); test: Natriuretic polypeptide receptor (hNpr2) antagonism - Pilot subtype selectivity assay (AID 1347050; calls by dose curve; also: % is scaled to controls: 0 for no effect and ±100 for the full control effect); settings: NPR2-expressing cells, cGMP antagonist-mode read-out; series mostly up to 38.3 µM
# Chain of UniProt P20594 (P20594 whole entry, looked up): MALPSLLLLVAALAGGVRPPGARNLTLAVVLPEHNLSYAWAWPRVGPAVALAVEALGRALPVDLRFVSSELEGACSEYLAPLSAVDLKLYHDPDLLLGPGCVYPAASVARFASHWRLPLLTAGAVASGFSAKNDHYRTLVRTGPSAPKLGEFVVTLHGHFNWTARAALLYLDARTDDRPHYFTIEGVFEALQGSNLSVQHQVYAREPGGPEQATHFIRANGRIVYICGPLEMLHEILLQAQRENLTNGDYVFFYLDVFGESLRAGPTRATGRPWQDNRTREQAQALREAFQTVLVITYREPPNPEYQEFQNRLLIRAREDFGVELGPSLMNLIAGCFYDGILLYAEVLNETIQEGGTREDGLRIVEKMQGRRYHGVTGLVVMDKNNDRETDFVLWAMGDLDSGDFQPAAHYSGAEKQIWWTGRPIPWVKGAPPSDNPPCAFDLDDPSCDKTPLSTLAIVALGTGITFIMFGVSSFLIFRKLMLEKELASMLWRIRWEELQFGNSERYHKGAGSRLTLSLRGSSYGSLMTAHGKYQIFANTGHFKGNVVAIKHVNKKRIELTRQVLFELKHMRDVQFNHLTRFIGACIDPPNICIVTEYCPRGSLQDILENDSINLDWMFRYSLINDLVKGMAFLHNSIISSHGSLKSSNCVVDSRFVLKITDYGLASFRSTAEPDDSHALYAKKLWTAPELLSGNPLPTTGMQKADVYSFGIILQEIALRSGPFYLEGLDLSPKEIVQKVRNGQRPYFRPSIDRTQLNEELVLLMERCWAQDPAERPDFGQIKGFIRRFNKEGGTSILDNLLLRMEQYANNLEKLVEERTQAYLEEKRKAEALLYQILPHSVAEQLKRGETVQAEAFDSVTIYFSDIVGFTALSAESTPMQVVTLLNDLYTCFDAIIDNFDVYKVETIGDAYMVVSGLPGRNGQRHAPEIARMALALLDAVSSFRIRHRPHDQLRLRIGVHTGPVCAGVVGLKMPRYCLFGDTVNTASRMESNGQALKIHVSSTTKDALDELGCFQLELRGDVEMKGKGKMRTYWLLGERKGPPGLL
# Summary of the method: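 Read-out: GloSensor luminescence (CCD imager), baseline vs post-stimulation. HEK293 cells expressing hNpr2; compounds pre-incubated 30-50 min at ambient temperature; hNppC 1 nM final, 20 min.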
# [7] = target: T1, Tyrosine-protein phosphatase non-receptor type substrate 1 (Homo sapiens) + Leukocyte surface antigen CD47 (Homo sapiens); test: CD47-SIRPalpha protein protein interaction - LANCE assay qHTS validation (AID 1347057; active = well fitted curve in the direction sought with a large enough effect in the signal ratio, with a control signal flat, not every such curve was filed as active; inconclusive = small, poorly fitted or top-dose-only effect, or effect the other way, or a change in a side signal; inactive = no such curve, though single readings can be large or run the other way; the % refers to the signal ratio; also: 0% is about no effect); settings: Recombinant CD47-His / biotin-SIRPalpha, TR-FRET ratio; series mostly up to 38.3 µM
# Summary of the method: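 Inhibition of soluble CD47/SIRPalpha ectodomain association by titrated compounds, measured as 665/615 nm time-resolved FRET ratio after sequential 30 min room-temperature incubations.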
# [8] = qHTS Screen of the MIPE 4.0 Collection Against Ewings Sarcoma (TC32) (AID 1259256); settings: TC32 Ewing sarcoma viability, CellTiter-Glo, 48 h; series mostly up to 45.8 µM; also: nearly all actives have a fitted effect of over 45% in size; also: potency is read from the fitted curve at half-maximal effect;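 as to viability (percent of control): 100% = DMSO-treated cells and 0% = medium-only wells without cells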
# Summary of the method: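 Measured: ATP luminescence (CellTiter-Glo) 10 min after reagent addition, following 48 h drug treatment. Relative luciferase units converted to percent activity, with no-cell wells as full and DMSO wells as zero inhibition.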
# [9] = qHTS assay to identify small molecule inhibitors of chordoma cells - UCH-1 (AID 1259355); settings: UCH-1 chordoma viability, CellTiter-Glo, 48 h, combination, with auranofin plus four topoisomerase inhibitors; series mostly up to 46.1 µM; also: nearly all actives have a fitted effect of over 55% in size; also: potency is read from the fitted curve at half-maximal effect
# Summary of the method: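 A 48hr growth-inhibition format: each drug tested at 15 concentrations together with added auranofin, camptothecin, doxorubicin, rubitecan and topotecan, with cell viability quantified as CellTiter-Glo luminescence.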
# [10] = NS1 protein of Zika virus - qHTS assay to identify small molecule inhibitors in human HEK 293 cells (AID 1347053); settings: HEK293 ZIKV MR766 infection, NS1 TR-FRET, 24 h; series mostly up to 46.1 µM; also: nearly all actives have a fitted effect of over 55% in size; also: potency is read from the fitted curve at half-maximal effect
# Summary of the method: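 Compound-treated (1 h pre-infection) HEK 293 cells infected with ZIKV MR766, MOI = 0.5; after 24 h at 37 C, NS1 read by TR-FRET; data normalized to uninfected and infected controls.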
# [11] = Identifying Small Molecule Inhibitors of Pancreatic Cancer Stem Cells (A2780, Spheroid) (AID 1259357); settings: Potency: A2780 spheroid viability unless noted; viability (percent of control): at 46.1 µM (top of the series) unless noted;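 also: compound exposure lasted 48 h before the ATP luminescence read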; also: potency is read from the fitted curve at half-maximal effect;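 as to viability (percent of control): 100% = DMSO treated cells and 0% = wells without cells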
# Summary of the method: (§1)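 Viability is scored by CellTiter-Glo luminescence 48 h after dosing, expressed as percent activity against vehicle and no-cell references. Spheroid formats rely on cells cultured 14 days in stem cell media beforehand.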
# [12] = Identifying Small Molecule Inhibitors of Pancreatic Cancer Stem Cells (Panc1, Spheroid) (AID 1259359); settings: Panc1 spheroid cancer stem cell viability; viability, % of control: at 46.1 µM (top of the series);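 also: potency is read from the fitted curve at half-maximal effect; compound exposure lasted 48 h before reading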
# Summary of the method: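 Adherent (2D) versus sphere (3D) formats; spheres generated 14 d in SCM beforehand. Compound transferred by pin tool after 4 h, 48 h incubation, CellTiter-Glo endpoint.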
# [13] = Identifying Small Molecule Inhibitors of Pancreatic Cancer Stem Cells (SN12C, Spheroid) (AID 1259360); settings: Potency: SN12C spheroid viability; series mostly up to 46.1 µM; also: potency is read from the fitted curve at half-maximal effect
# Summary of the method: as §1
# [14] = qHTS assay to identify small molecule inhibitors of chordoma cells - UCH-2 (AID 1259356); settings: UCH-2 chordoma viability, CellTiter-Glo ATP luminescence, 48 h; series mostly up to 46.1 µM; also: potency is read from the fitted curve at half-maximal effect
# [15] = Identifying Small Molecule Inhibitors of Pancreatic Cancer Stem Cells (SN12C, Adherent) (AID 1259358); settings: viability/growth inhibition; series mostly up to 46.1 µM;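 also: potency is read from the fitted curve at half-maximal effect; cell survival measured after 48 h of compound exposure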
# Summary of the method: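 After a 4 h attachment period, compounds were pinned into wells and cultures held 48 h under standard incubator conditions. Viability was then measured as CellTiter-Glo luminescence following 10 min at room temperature.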
# [16] = Identifying Small Molecule Inhibitors of Pancreatic Cancer Stem Cells (Panc1, Adherent) (AID 1259362); settings: Potency: viability unless noted; viability, % of control: at 46.1 µM (top of the series) unless noted; also: potency is read from the fitted curve at half-maximal effect
# Summary of the method: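 Cytotoxicity read by CellTiter-Glo luminescence after 48 h compound exposure at 37C; percent activity scaled between DMSO-treated cells and cell-free wells. Spheroid formats used cells pre-formed 14 days in stem cell media on hydrogel.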
# [17] = Natriuretic polypeptide receptor (hNpr1) antagonism - Pilot counterscreen GloSensor control cell line (AID 1347045; calls by dose curve; also: % is scaled to controls: 0 for no effect and ±100 for the full control effect); settings: HEK293 cGMP GloSensor cells, SNP-stimulated luminescence, 20 min; series mostly up to 38.3 µM
# Summary of the method: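 Control counterscreen: luciferase cGMP-biosensor HEK293 cells (no Npr1) received compound for 30 min at room temperature after GloSensor substrate loading. Luminescence was measured before and 20 min after soluble guanylyl cyclase activation by 50 uM nitroprusside.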
# Tags tell the direction and shape of the fitted curve.
smiles,measurement,setting,value
CCn1cc(C(=O)O)c(=O)c2cc(F)c(N3CCN(C)CC3)cc21,max response,[1],inactive: 4.94%
CC(C)(C)NC(=O)[C@H]1CC[C@H]2[C@@H]3CC[C@H]4NC(=O)C=C[C@]4(C)[C@H]3CC[C@]12C,Potency,[1],"inconclusive: 3.16 µM [inhibitor, single point]"
Nc1nc(N)c2nc(CNc3ccc(C(=O)NC(CCC(=O)O)C(=O)O)cc3)cnc2n1 (stereo not drawn),Potency,[2],"inconclusive: 25.1 nM [cytotoxic, full curve]"
same,Potency,[3],active: 89.1 nM
same,Potency,[4],active: 0.0372 µM
same,Potency,[5],"inconclusive: 16.5 µM [side channel, falling, partial curve]"
NC(=O)c1cccc(N)c1,Potency,[6],inactive
same,Potency,[7],inactive
NC[C@H](O)c1ccc(O)c(O)c1,Potency,[8],inactive
same,Potency,[9],inactive
same,Potency,[10],inactive
same,Potency,[5],"inconclusive: 26.1 µM [side channel, falling, single point]"
NC(N)=NC(N)=NCCc1ccccc1,Potency,[8],"inconclusive: 20.9 µM [inhibitor, partial curve]"
same,Potency,[9],inactive
same,Potency,[4],"inconclusive: 6.99 µM [inhibitor, partial curve]"
CCCCc1nc2cc(C=CC(=O)NO)ccc2n1CCN(CC)CC,Potency,[1],active: 3.72 µM
same,Potency,[8],active: 0.0935 µM
same,Potency,[11],"inconclusive: 0.132 µM [cytotoxic, full curve, poor fit]"
same,Potency,[12],"inconclusive: 833 nM [cytotoxic, full curve, poor fit]"
same,Potency,[13],"inconclusive: 7.43 µM [cytotoxic, partial curve]"
same,Potency,[4],active: 7.43 µM
Nc1ncnc2c1ncn2[C@@H]1O[C@H](CO)[C@@H](O)[C@@H]1O,Potency,[8],"inconclusive: 8.33 µM [inhibitor, partial curve]"
same,Potency,[4],inactive
CC(C)C[C@H](NC(=O)[C@H](Cc1ccccc1)NC(=O)c1cnccn1)B(O)O,Potency,[8],active: 0.0372 µM
same,Potency,[9],active: 12.6 nM and active: 6.3 nM
same,Potency,[14],"inconclusive: 517 nM [cytotoxic, partial curve, poor fit] and inconclusive: 65.1 nM [cytotoxic, full curve, poor fit]"
same,Potency,[11],"inconclusive: 8.33 µM [rising, full curve]"
same,Potency,[15],active: 0.0166 µM
same,Potency,[12],active: 1.7 nM
same,Potency,[13],active: 0.0105 µM
Cc1cc([C@@H](C)Nc2ccccc2C(=O)O)c2nc(N3CCOCC3)cc(=O)n2c1,Potency,[8],active: 34 µM
same,Potency,[11],"inconclusive: 16.6 µM [cytotoxic, partial curve, poor fit]"
same,Potency,[12],"inconclusive: 13200 nM [cytotoxic, partial curve, poor fit]"
same,Potency,[13],active: 14.8 µM
same,Potency,[16],"inconclusive: 18.7 µM [cytotoxic, partial curve, poor fit]"
same,Potency,[4],"inconclusive: 19.1 µM [inhibitor, partial curve]"
same,Potency,[10],inactive
COc1cc2c(Nc3ccc(Br)cc3F)ncnc2cc1OCC1CCN(C)CC1,Potency,[8],"inconclusive: 13.2 µM [inhibitor, partial curve, poor fit]"
same,Potency,[9],active: 5.01 µM
same,Potency,[14],"inconclusive: 2.59 µM [cytotoxic, full curve]"
same,Potency,[11],inactive
same,Potency,[15],"inconclusive: 18.7 µM [cytotoxic, partial curve]"
same,Potency,[12],"inconclusive: 7.4 nM [cytotoxic, full curve, poor fit]"
same,Potency,[13],"inconclusive: 20.9 µM [cytotoxic, partial curve]"
same,Potency,[4],"inconclusive: 14.8 µM [inhibitor, partial curve] and inconclusive: 20.6 µM [inhibitor, single point]"
same,Potency,[10],"inconclusive: 37.2 µM [inhibitor, single point]"
CC(C[N+](C)(C)C)OC(N)=O (stereo not drawn),Potency,[1],"inconclusive: 5.62 µM [inhibitor, single point]"
same,Potency,[8],inactive
same,Potency,[14],inactive
same,Potency,[17],inactive
same,Potency,[10],inactive
COc1ccc2c3n(c(=NC(=O)c4cccnc4)nc2c1OC)CCN3,Potency,[8],active: 8.33 µM
same,Potency,[11],active: 3.32 µM
same,Potency,[12],"inconclusive: 83.3 nM [cytotoxic, full curve, poor fit]"
same,Potency,[13],active: 5.9 µM
same,Potency,[4],"inconclusive: 10.5 µM [inhibitor, partial curve] and active: 651 nM"
CNNCc1ccc(C(=O)NC(C)C)cc1,Potency,[8],inactive
CC(C)N(CC[C@H](c1ccccc1)c1cc(CO)ccc1O)C(C)C,Potency,[8],inactive

# Reference: PubChem BioAssay (NCATS)
